The other results are listed elsewhere or left out.
How the values were obtained:
HSkMC = human skeletal muscle cells; assay: cytotoxicity call (relative viability < 0.9); conditions: 10 µM
HepG2 = assay: cytotoxicity call (relative viability < 0.9); conditions: 10 µM
S. aureus RN4220 = assay: growth inhibition call (relative growth <= 0.2); conditions: 50 µM

Compound	cytotoxicity call (HSkMC)	cytotoxicity call (HepG2)	growth inhibition call (S. aureus RN4220)
Cc1noc(C)c1S(=O)(=O)N(C)C[C@H]1Oc2ccc(NC(=O)NC(C)C)cc2CC(=O)N([C@@H](C)CO)C[C@H]1C	inactive	inactive	inactive
C[C@H](CO)N1C[C@H](C)[C@@H](CN(C)S(=O)(=O)c2cn(C)cn2)Oc2ccc(NC(=O)CCC(F)(F)F)cc2CC1=O	inactive	inactive	inactive
C[C@H](CO)N1C[C@H](C)[C@@H](CN(C)Cc2ccc(-c3ccccc3)cc2)Oc2ccc(NC(=O)Nc3ccccc3)cc2CC1=O	inactive	active	inactive
CC(C)NC(=O)N(C)C[C@@H]1Oc2cc(-c3ccccc3F)ccc2S(=O)(=O)N([C@H](C)CO)C[C@@H]1C	inactive	inactive	inactive
C[C@@H]1CCCCO[C@H](CN(C)S(=O)(=O)c2ccccc2)[C@@H](C)CN([C@@H](C)CO)C(=O)c2cc(NC(=O)Nc3ccccc3)ccc2O1	inactive	inactive	inactive
CS(=O)(=O)CCCCN=C=S	inactive	inactive	inactive
COc1ccc(-c2cnc3c(c2)C(=O)N([C@H](C)CO)C[C@H](C)[C@H](CN(C)S(=O)(=O)c2cn(C)cn2)O3)cc1	inactive	inactive	inactive
C[C@H](CO)N1C[C@H](C)[C@H](CN(C)Cc2ccc(-c3ccccc3)cc2)Oc2ccc(NC(=O)NC3CCCCC3)cc2C1=O	inactive	inactive	inactive
COc1ccc(S(=O)(=O)Nc2ccc3c(c2)C(=O)N([C@@H](C)CO)C[C@@H](C)[C@H](CN(C)C(=O)Nc2ccc(C(F)(F)F)cc2)OCCCC[C@@H](C)O3)cc1	inactive	inactive	inactive
C[C@@H]1CN([C@H](C)CO)S(=O)(=O)c2ccc(Br)cc2O[C@H]1CN(C)C(=O)c1ccc2c(c1)OCO2	inactive	inactive	inactive
COC(=O)c1c2oc(c1C(=O)OC)C(=O)N[C@@H](Cc1ccccc1)Cn1cc(nn1)[C@H](Cc1ccccc1)NC(=O)N[C@@H](COC(=O)NCCCCCC(=O)NO)CC2	inactive	inactive	inactive
C[C@H](CO)N1C[C@H](C)[C@@H](CN(C)Cc2ccccn2)Oc2ncc(C#Cc3cccc(F)c3)cc2C1=O	inactive	inactive	inactive
CCCN(C)C[C@H]1OCCCC[C@H](C)Oc2ccc(NC(=O)c3ccccc3)cc2C(=O)N([C@@H](C)CO)C[C@H]1C	inactive	inactive	inactive
O=C1[C@H]2[C@H](O)CS[C@H]2C(=O)N1c1ccccc1	inactive	inactive	inactive
COc1ccc(OCC(=O)NCC(=O)O)cc1	inactive	inactive	inactive
CC(C)NC(=O)N(C)C[C@H]1Oc2cc(C#Cc3ccccn3)ccc2S(=O)(=O)N([C@@H](C)CO)C[C@@H]1C	inactive	inactive	inactive
C[C@@H]1CN([C@@H](C)CO)C(=O)c2cc(NC(=O)Nc3cccc4ccccc34)ccc2O[C@@H](C)CCCCO[C@@H]1CN(C)Cc1ccccc1	active	active	inactive
C[C@@H]1CCCCO[C@@H](CN(C)Cc2ccncc2)[C@@H](C)CN([C@H](C)CO)C(=O)c2cc(NC(=O)Nc3cccc4ccccc34)ccc2O1	inactive	inactive	inactive
O=C(C[C@H]1C[C@H]2c3cc(NS(=O)(=O)c4ccccc4)ccc3O[C@H]2[C@H](CO)O1)NC1CCCCC1	inactive	inactive	inactive
N[C@@H](Cc1ccccc1F)C(=O)O	inactive	inactive	inactive
C[C@H](CO)N1C[C@H](C)[C@@H](CN(C)C(=O)Nc2ccc(F)cc2)Oc2ncc(Br)cc2C1=O	inactive	inactive	inactive
O=C(C[C@@H]1C=C[C@@H](NS(=O)(=O)c2ccc(F)cc2)[C@@H](CO)O1)N1CCC(Cc2ccccc2)CC1	inactive	inactive	inactive
C[C@H]1CN([C@@H](C)CO)C(=O)c2cc(NC(=O)C3CC3)ccc2O[C@@H]1CN(C)Cc1ccc2c(c1)OCO2	inactive	inactive	inactive
COc1ccc(NC(=O)N(C)C[C@@H]2Oc3c(NC(=O)c4cc(C)nn4C)cccc3C(=O)N([C@H](C)CO)C[C@@H]2C)cc1	inactive	inactive	inactive
COCC(=O)N1C[C@@H](C)[C@@H](OC)CN(C)C(=O)c2cc(NC(=O)c3cc(C)on3)ccc2OC[C@@H]1C	inactive	inactive	inactive
COc1cccc(S(=O)(=O)Nc2ccc3c(c2)OC[C@H](C)N(C(=O)Cc2cccnc2)C[C@@H](C)[C@@H](OC)CN(C)C3=O)c1	inactive	inactive	inactive

Source: the antibiotic and cytotoxicity screens of Wong et al. (2023)
